In patent US20220089642A1 (CITY OF HOPE, published 2022):

Molecular target: receptor binding domain (RBD) of the spike protein (SARS-CoV-2)
Experiment: elution profiles and Western blot

B1: Fc-ACE2 full length construct (Fc fusion)
chain: not shown
notes: also called Fc-ACE2 construct; FC-ACE2 construct
binding result: binds
